In all, about 45,000 compounds went through this assay and about 65 (0.1%) were called active. Calls follow the shape of the dose curve; as a rule, active = well fitted activation curve with a large enough effect; inconclusive = small, poorly fitted or top-dose-only effect; inactive = no such curve, though single readings can be large or run the other way. The list shows a part of the results.
molecular target: Galactocerebrosidase (Homo sapiens) (UniProt P54803); experiment: A Novel Cell-Based Assay to Identify Small Molecules for B -Galactocerebrosidase; details: 145M-Twi-hGALC-G270D cells (Twitcher mouse brain line with human GALC G270D), HMU-beta-Gal fluorescence, 48 h; series mostly up to 57.5 µM; activation: at the top concentration; also: 0% is about no effect; nearly all actives have a fitted effect of over 65% in size
Chain of UniProt P54803 (P54803 whole entry, looked up): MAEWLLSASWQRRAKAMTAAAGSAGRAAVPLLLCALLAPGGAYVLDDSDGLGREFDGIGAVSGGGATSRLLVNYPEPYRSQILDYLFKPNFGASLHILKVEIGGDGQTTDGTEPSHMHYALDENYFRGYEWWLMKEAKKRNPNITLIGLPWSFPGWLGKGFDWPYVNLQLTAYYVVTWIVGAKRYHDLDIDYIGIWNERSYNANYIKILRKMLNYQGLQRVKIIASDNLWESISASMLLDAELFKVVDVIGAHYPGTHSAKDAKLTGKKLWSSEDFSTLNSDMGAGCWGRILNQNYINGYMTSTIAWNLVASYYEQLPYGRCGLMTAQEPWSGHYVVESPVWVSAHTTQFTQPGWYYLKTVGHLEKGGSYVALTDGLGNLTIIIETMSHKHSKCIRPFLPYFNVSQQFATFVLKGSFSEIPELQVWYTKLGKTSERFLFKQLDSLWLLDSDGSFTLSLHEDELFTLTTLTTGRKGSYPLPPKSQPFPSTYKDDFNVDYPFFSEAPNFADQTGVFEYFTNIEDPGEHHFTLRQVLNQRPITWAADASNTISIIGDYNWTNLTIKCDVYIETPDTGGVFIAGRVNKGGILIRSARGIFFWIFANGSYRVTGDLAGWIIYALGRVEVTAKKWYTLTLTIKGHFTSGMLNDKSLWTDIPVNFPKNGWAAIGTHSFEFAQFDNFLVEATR
In short: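 Mutant human GALC (G270D), stably expressed in a Twitcher mouse brain cell line lacking endogenous GALC, is measured in live-treated cells via 6-hexadecanoylamino-4-methylumbelliferyl-β-galactoside hydrolysis (0.1 mM final, pH 5.2) with fluorescent detection.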

activation, inactive:
Cc1ccc(NC(=O)/C(C#N)=C/c2ccccc2Cl)cc1C 1.83%
COc1ccccc1OCCCCn1c(C2CC(=O)N(c3ccccc3Cl)C2)nc2ccccc21 (stereo not given) 1.86%
COc1ccccc1OCC1CNC(=O)O1 (stereo not given) -17.1%
COc1ccc(CCNC(=O)Cn2c(=O)n(-c3ccc(OC)c(OC)c3)c(=O)c3ccccc32)cc1OC -6.15%
CCN(CC)CCNC(=O)CN1C(=O)c2cccnc2Oc2ccc(C)cc21 -3.98%
COc1cc(NC(=O)Cn2c(=O)n(CC(=O)NCCc3ccc(OC)c(OC)c3)c(=O)c3sccc32)cc(OC)c1 -18.6%
Cc1nc(-c2ccc(S(=O)(=O)N3CCN(c4cccc(Cl)c4)CC3)cc2)co1 -3.87%
CC(=O)c1cccc(NC(=O)c2sc(-n3nc(C)c(CCC(C)C)c3C)nc2C)c1 -6.46%
CC(=O)NCCNc1nc2c(-c3cccc(C)c3)nnn2c2ccc(Cl)cc12 -6.45%
CSc1ccc(CNC(=O)Cc2csc3ccccc23)cc1 -8.16%
COc1ccc(-n2nnnc2C2CCN(S(=O)(=O)c3ccc(F)cc3Cl)CC2)cc1 -9.02%
COc1cccc(Nc2sc(C(=O)c3ccc4c(c3)OCO4)c(N)c2S(=O)(=O)c2ccccc2)c1 -15.4%
COc1ccc(N2CC(NC(=O)Cc3cccs3)CC2=O)cc1 (stereo not given) -7.83%
CC(=O)Nc1ccc(S(=O)(=O)NCC2CCC(C(=O)NCc3ccccc3Cl)CC2)cc1 (stereo not given) -7.68%
Cc1ccc2ncc(S(=O)(=O)c3ccccc3)c(N3CCCCC3C)c2c1 (stereo not given) -38.1%
COc1ccc(CNC(=O)CN(c2cc(C(F)(F)F)ccc2Cl)S(C)(=O)=O)cc1 -26.8%
CCn1c(C)c(C)c2cc(C(=O)NCc3ccc(N(C)C)cc3)ccc21 4.64%
COc1ccc(C2=NC3(CCCCCC3)N(CC(=O)Nc3ccc(C)c(C)c3)C2=O)cc1 -12%
Cc1ccccc1Nc1sc(C(=O)c2ccc(F)cc2)c(N)c1C(=O)NCCc1ccccc1 -6.85%
Cc1ccc(C(=O)c2oc3ccccc3c2NC(=O)c2cc(-c3ccc(Cl)cc3)on2)cc1 -11%
O=C1[C@H](CC[C@H](O)c2ccc(F)cc2)[C@@H](c2ccc(O)cc2)N1c1ccc(F)cc1 -7.9%
COc1ccc(Cl)cc1NC(=O)Cn1ncc2c3ccccc3n(Cc3ccccc3)c2c1=O -8.07%
CCn1cc(C(=O)NCCc2ccc(OC)c(OC)c2)c(=O)c2cc(S(=O)(=O)N3CCOCC3)ccc21 -2.34%
Cc1ccc(C(=O)Nc2nnc(S(=O)(=O)N(C)Cc3ccco3)s2)cc1 -20.1%
Cc1ccc(C)c(NC(=O)CN2CCN(C3CCCCC3)C(=O)C2=O)c1 -18.3%
COc1cccc(CNC(=O)c2ccc3c(c2)nc2n3CCOC2)c1OC -4.8%
Cc1cccc(-n2nnc(-c3nc(-c4ccccc4)no3)c2N)c1C -5.4%
CC1CCN(S(=O)(=O)c2ccc3c(ccn3CC(=O)NCc3ccccc3F)c2)CC1 -15.3%
COc1ccc(S(=O)(=O)c2c(SC)nn(CC(=O)Nc3ccc(C)c(Cl)c3)c2N)cc1 -19.3%
Cc1ccc(-c2noc(C(C)NC(=O)c3ccco3)n2)cc1 (stereo not given) -11.5%
Cc1cnc(C(=O)NCCc2ccc(S(=O)(=O)NC(=O)NC3CCCCC3)cc2)cn1 -13.6%
O=C(Nc1cccc(C(F)(F)F)c1)c1cc(-c2ccc(Cl)cc2)on1 -9.33%
CCc1nc2c(cnn2-c2ccc(C)cc2)c(=O)n1-c1ccc(C)cc1 -10%
CC(C)C(=O)Nc1cccc(C(F)(F)F)c1 -12%
COCCCNC(=O)CSc1nc2cc3c(cc2c(=O)n1CCCCCC(=O)NCCc1ccc(OC)c(OC)c1)OCO3 -1.15%
CC(C)(C)C1CCc2nc(NC(=O)COc3ccccc3[N+](=O)[O-])sc2C1 (stereo not given) -15.4%
COc1ccc2c(CNC3CCCC3)c(C(=O)O)n(Cc3ccccc3C)c2c1 -19.5%
CCc1nn2c(=O)cc(COC(=O)c3cccc(NC(=O)c4ccccc4C)c3)nc2s1 -19%
Cc1ccccc1NC(=O)CN1C(=O)C2(SCC(=O)N2c2ccc(F)cc2)c2ccccc21 (stereo not given) -30.1%
CC1=C(c2ccc(C)cc2)S(=O)(=O)N(Cc2ccc(C(=O)NCc3ccccc3)cc2)C1=O -17.3%
O=C(NCc1ccc(F)cc1)c1ccc2c(c1)N(Cc1c(F)cccc1Cl)C(=O)CS2 -2.83%
Cc1cc(C)c2c(=O)cc(C(=O)Nc3sc4c(c3C#N)CCCC4)oc2c1 -7.36%
COc1cccc(-n2ccn(CC(=O)Nc3ccccc3F)c(=O)c2=O)c1 -10.4%
O=C(Nc1ccc(F)c(F)c1)c1cc(S(=O)(=O)N2CCc3ccccc32)ccc1F -6.17%
COc1ccc2c(c1)c(CC(=O)Nc1cccc(F)c1C)c(C)n2C(=O)c1ccc(Cl)cc1 -9.03%
Cc1ccc(CNC(=O)CSCc2nc(-c3ccc(Cl)cc3)oc2C)cc1 -14.6%
CCc1ccccc1NC(=O)Cn1cc(C(=O)c2ccc(Cl)cc2)c(=O)c2ccc(C)nc21 -15.7%
COc1ccc(C2=C(C)C(N3CCC(C(=O)NCc4ccco4)CC3)=NS2(=O)=O)cc1 -7.32%
Cc1ccc(CNS(=O)(=O)c2cc(C(=O)Nc3ccc(C(C)C)cc3)ccc2F)cc1 -8.23%
CCOc1ccc(NC(=O)N2CCC(CN3CCC(C)CC3)CC2)cc1 -6.09%
Cc1cccc(N2CCN(C(=O)COCc3cc(-c4ccc5c(c4)OCO5)on3)CC2)c1C -8.9%
Cc1ccccc1-c1nc2c3c(-c4ccccc4)c(-c4ccccc4)oc3ncn2n1 -11.9%
COc1ccc(-c2cc(C(=O)NCCc3ccc(Cl)cc3)[nH]n2)cc1 -7.48%
CCOC(=O)c1[nH]c2ccccc2c1NC(=O)c1cc(OC)cc(OC)c1 -17.9%
COc1cccc(-c2ccnc3c(-c4ccccc4)c(C)nn23)c1 -9.11%
CCn1c(=O)n(-c2ccc(F)c(Cl)c2)c(=O)c2sc3ccccc3c21 -7.98%
Cc1ccc(CN(C(=O)c2ccc(F)cc2)c2ccccn2)o1 -20.5%
Cc1ccc(CNc2nc3c(c(=O)n(C)c(=O)n3C)n2Cc2ccc(Cl)cc2)cc1 -12.4%
COC(=O)c1ccccc1NC(=O)COCc1cc(-c2cccs2)on1 -17.2%
COc1ccccc1N1CCN(C(=O)c2cc3c(=O)n(Cc4cccs4)ccc3nc2C)CC1 -14.5%
CCOC(=O)N1CCc2c(sc3c2c(=O)n(-c2ccc(CC)cc2)c(=O)n3Cc2ccc(F)cc2Cl)C1 -10.8%
COc1ccc(N2CCN(CCCNC(=O)c3c(C)nn(-c4ccc(F)cc4)c3-n3cccc3)CC2)cc1 -30.5%
COc1ccc(S(=O)(=O)N(CC(=O)NC(C)c2ccccc2)c2ccc(C)cc2)cc1OC (stereo not given) -11.2%
CCc1ccc(NC(=O)Cn2nnc(-c3ccccc3N)n2)cc1 -5.52%
Cc1cccc(N2CCN(c3ccc4cc(S(=O)(=O)N5CCC(C)CC5)ccc4n3)CC2)c1C -20.1%
CC(C)C(=O)Nc1nnc(S(=O)(=O)N2CCc3ccccc32)s1 -6.63%
CCOc1ccc(NC(=O)Cn2nc(Cc3cccnc3)c3ccccc3c2=O)cc1 -11.7%
COc1ccccc1NC(=O)N1CCN(c2ccc3nnc(-c4ccc(F)cc4)n3n2)CC1 -10.1%
CCOc1ccc2nc(N3CCCC(C(=O)NCCc4ccc(Cl)cc4)C3)sc2c1 (stereo not given) -3.16%
CCOC(=O)c1c(NC(=O)Cc2coc3ccc(CC)cc23)sc2c1CCC2 -10.1%
Cc1ccc(-n2ncc3c(NCCCn4ccnc4)ncnc32)cc1C -5.97%
Cc1ccc(OCC(=O)Nc2ccc(OCc3cc(=O)n4c(C)csc4n3)cc2)cc1C -8%
CCc1ccc(NC(=O)CC(NCc2cccnc2)C(=O)O)cc1 (stereo not given) -9.35%
O=c1oc2ccccc2cc1-c1cn2cc(Cc3ccc(F)cc3)sc2n1 -7.75%
CCOC(=O)c1c(C)oc2ncnc(Nc3cccc(C(F)(F)F)c3)c12 3.61%
Cc1nc(-c2ccc(Cl)cc2)sc1CCNC(=O)C(=O)Nc1ccc2c(c1)OCO2 -12.6%
CSc1ccc(CCNC(=O)Cn2nc(C)n3c(cc4sccc43)c2=O)cc1 -13.8%
Cn1c(=O)c2c(nc(SCC(=O)Nc3ccccc3F)n2Cc2ccccc2F)n(C)c1=O -14.6%
COc1ccc(CNC(=O)C(=O)NCC(c2ccco2)S(=O)(=O)c2ccc(Cl)cc2)cc1 (stereo not given) -39.1%
CCOC(=O)c1cccc(NC(=O)Cn2ncc3c(=O)oc4ccccc4c32)c1 -18.7%
CCOc1ccccc1Nc1sc(C(=O)c2ccccc2)c(N)c1C(=O)Nc1ccc(F)cc1 17.8%
Cc1ccc(Cn2ccnc2SCC(=O)NCc2ccccc2)cc1 -13.3%
CC(C)COc1ccc(C(=O)N2CCCCC2CCN2CCOCC2)cc1 (stereo not given) -5.68%
COc1ccc(OC)c(CCNC(=O)c2nc(-c3ccc(Cl)cc3)n3c2CCCCC3)c1 -24.9%
COc1cccc(NC(=O)Cn2c(=O)oc3cc(S(=O)(=O)N4CCCCC4)ccc32)c1 -45.4%
Cc1ccc(C(=O)c2oc3ccccc3c2NC(=O)COc2ccc(Cl)c(C)c2)cc1 -9.3%
Cc1c(C)n(Cc2ccc(Cl)cc2)c2ccc(C(=O)N3CCN(c4ccccc4F)CC3)cc12 -15.2%
Cc1ccc(C(=O)CSc2nc(C)cc(C)c2C(=O)Nc2cccc(C)c2)cc1 -13.1%
COc1cccc(CNC(=O)C2CCCN(c3nnc(-n4c(C)ccc4C)s3)C2)c1OC (stereo not given) -12.6%
CSc1nn(Cc2ccc(F)cc2)c(N(C(C)=O)C(C)=O)c1S(=O)(=O)c1ccccc1 10%
CCc1cccc(CC)c1NC(=O)CN(C)S(=O)(=O)c1ccc2c(c1)n(C)c(=O)c(=O)n2C -12%
CCC(=O)N1CCc2cc(Br)cc(S(=O)(=O)N3CCCC(C(=O)NCc4ccc(C)cc4)C3)c21 (stereo not given) -9.31%
Cc1ccc(-n2c3nc(=O)n(C)c(=O)c-3cc3ccccc32)c(C)c1 12.6%
O=C(Nc1ccc(OC(F)(F)F)cc1)c1cc(-c2ccc(Cl)cc2)on1 -9.17%
Cc1nc2c3ccccc3nc(NNC(=O)CCC(=O)N3CCN(c4ccc(F)cc4)CC3)n2n1 -10.8%

— PubChem BioAssay AID1159614 (National Center for Advancing Translational Sciences (NCATS), 2016)
